Data reported in patent publication US20250223369A1 (WISTAR INSTITUTE OF ANATOMY AND BIOLOGY, published 2025).

Target: T1, human Siglec 7 on cells (human, UniProt Q9Y286 19-467)
T1 construct: whole, on cells; also called HEK293T-Siglec7 cells
Assay: flow cytometry on Siglec 7 overexpressing HEK293T cells

T1 sequence (Q9Y286 19-467): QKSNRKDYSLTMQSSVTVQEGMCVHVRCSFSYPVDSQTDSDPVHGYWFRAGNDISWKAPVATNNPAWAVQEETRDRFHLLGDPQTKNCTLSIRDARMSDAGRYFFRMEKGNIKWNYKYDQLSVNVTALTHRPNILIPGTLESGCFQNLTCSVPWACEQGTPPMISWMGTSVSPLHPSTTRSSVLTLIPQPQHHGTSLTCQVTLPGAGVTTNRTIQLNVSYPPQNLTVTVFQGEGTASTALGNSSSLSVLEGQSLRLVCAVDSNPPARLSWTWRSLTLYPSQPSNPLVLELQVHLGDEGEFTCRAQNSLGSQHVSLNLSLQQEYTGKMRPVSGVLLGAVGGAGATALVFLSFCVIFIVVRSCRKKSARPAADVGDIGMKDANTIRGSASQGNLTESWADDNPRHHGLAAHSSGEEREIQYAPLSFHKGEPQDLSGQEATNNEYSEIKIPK

binding result: binds
B1: DDAP-NKCE (FSHR×Siglec 7 bispecific NK cell engager) (bispecific antibody)
scFv: [not shown - about 100 residues]FGQGTKVEIKGGGGSGGGGSGGGGSQVQLVESGGGVVQPGRSLRLSCAASGFTFRTDAMHWVRQAPGKGLEWVAVIWYDGSIKYHADSVKGRFTISRDNSKNTLYLEMNSLRAEDTAVYYCARDRSNSLDHWGQGILVSVSSGGGGSEVQLVESGGGLVQPGGSLRLSCSFSGFSLSTSGMGVGWIRQAPGKGLEWVAHIWWDDDKRYNPALKSRFTLSVDRSKNTLYLQMNSLRAEDTATYYCVQINYGNYRFDNWGHGTLVTVSSGGGGSGGGGSGGGGSDIQMTQSPSSLSASVGDRVTISCRASESVDNYGISFLNWFQQKPGKAPKLLIYAASNQRSGVPSRFSGSGSGTDFTLTISSLQPEDFATYFCQQSKEVPWTFGQGTKVEIKR
notes: One chain: scFv of DB-S7-2 followed by scFv of the FSHR antibody (DDAP / D2AP11), GS linkers; Expressed in Expi293F cells as a ~55 KDa molecule; also called DB7.2×D2AP11 NKCE; DB7.2×D2AP11
